Experimental data as given in article PMC9911399, “Two distinct binding modes provide the RNA-binding protein RbFox with extraordinary sequence specificity”.
Numbering of substitutions follows the chain as printed; changes in the protein carry UniProt numbers. This is one part of the list.

B1: GACGCGU (DNA:RNA)
RNA: GGGAGACCGGAAUUCAGAUUGUCCGACGCGUUUAAAUCCCGUCGUAGCCACCA
DNA 1: CAATCTGAATTCCGGTCTCCC
DNA 2: TGGTGGCTACGACGGGATT
B2: UCCCUCG (DNA:RNA)
RNA: B1 RNA with G25U, A26C, G28C, C29U, G30C, U31G
DNA 1: CAATCTGAATTCCGGTCTCCC
DNA 2: TGGTGGCTACGACGGGATT
B3: CACUCCU (DNA:RNA)
RNA: B1 RNA with G25C, G28U, G30C
DNA 1: CAATCTGAATTCCGGTCTCCC
DNA 2: TGGTGGCTACGACGGGATT
B4: UCCAUGA (DNA:RNA)
RNA: B1 RNA with G25U, A26C, G28A, C29U, U31A
DNA 1: CAATCTGAATTCCGGTCTCCC
DNA 2: TGGTGGCTACGACGGGATT
B5: ACACUAC (DNA:RNA)
RNA: GGGAGACCGGAAUUCAGAUUGUCCACACUACUUAAAUCCCGUCGUAGCCACCA
DNA 1: CAATCTGAATTCCGGTCTCCC
DNA 2: TGGTGGCTACGACGGGATT
B6: GUAGUUA (DNA:RNA)
RNA: B5 RNA with A25G, C26U, C28G, A30U, C31A
DNA 1: CAATCTGAATTCCGGTCTCCC
DNA 2: TGGTGGCTACGACGGGATT
B7: GCGGUUC (DNA:RNA)
RNA: B5 RNA with A25G, A27G, C28G, A30U
DNA 1: CAATCTGAATTCCGGTCTCCC
DNA 2: TGGTGGCTACGACGGGATT
B8: GGACUUG (DNA:RNA)
RNA: B5 RNA with A25G, C26G, A30U, C31G
DNA 1: CAATCTGAATTCCGGTCTCCC
DNA 2: TGGTGGCTACGACGGGATT
B9: CUGGAAG (DNA:RNA)
RNA: B5 RNA with A25C, C26U, A27G, C28G, U29A, C31G
DNA 1: CAATCTGAATTCCGGTCTCCC
DNA 2: TGGTGGCTACGACGGGATT
B10: CUGUACC (DNA:RNA)
RNA: B5 RNA with A25C, C26U, A27G, C28U, U29A, A30C
DNA 1: CAATCTGAATTCCGGTCTCCC
DNA 2: TGGTGGCTACGACGGGATT
B11: UGCCUGG (DNA:RNA)
RNA: B5 RNA with A25U, C26G, A27C, A30G, C31G
DNA 1: CAATCTGAATTCCGGTCTCCC
DNA 2: TGGTGGCTACGACGGGATT
B12: CAGGAUG (DNA:RNA)
RNA: B1 RNA with G25C, C27G, C29A, G30U, U31G
DNA 1: CAATCTGAATTCCGGTCTCCC
DNA 2: TGGTGGCTACGACGGGATT
B13: UUUCGUG (DNA:RNA)
RNA: B5 RNA with A25U, C26U, A27U, U29G, A30U, C31G
DNA 1: CAATCTGAATTCCGGTCTCCC
DNA 2: TGGTGGCTACGACGGGATT
B14: CCAACGA (DNA:RNA)
RNA: B5 RNA with A25C, C28A, U29C, A30G, C31A
DNA 1: CAATCTGAATTCCGGTCTCCC
DNA 2: TGGTGGCTACGACGGGATT
B15: AUACCUG (DNA:RNA)
RNA: B5 RNA with C26U, U29C, A30U, C31G
DNA 1: CAATCTGAATTCCGGTCTCCC
DNA 2: TGGTGGCTACGACGGGATT
B16: CGGCCCU (DNA:RNA)
RNA: B1 RNA with G25C, A26G, C27G, G28C, G30C
DNA 1: CAATCTGAATTCCGGTCTCCC
DNA 2: TGGTGGCTACGACGGGATT
B17: CGGGUCC (DNA:RNA)
RNA: B5 RNA with A25C, C26G, A27G, C28G, A30C
DNA 1: CAATCTGAATTCCGGTCTCCC
DNA 2: TGGTGGCTACGACGGGATT
B18: GUGGUCC (DNA:RNA)
RNA: B5 RNA with A25G, C26U, A27G, C28G, A30C
DNA 1: CAATCTGAATTCCGGTCTCCC
DNA 2: TGGTGGCTACGACGGGATT
B19: UGACAGU (DNA:RNA)
RNA: B5 RNA with A25U, C26G, U29A, A30G, C31U
DNA 1: CAATCTGAATTCCGGTCTCCC
DNA 2: TGGTGGCTACGACGGGATT
B20: CCAUUGU (DNA:RNA)
RNA: B5 RNA with A25C, C28U, A30G, C31U
DNA 1: CAATCTGAATTCCGGTCTCCC
DNA 2: TGGTGGCTACGACGGGATT
B21: GACGUAC (DNA:RNA)
RNA: B1 RNA with C29U, G30A, U31C
DNA 1: CAATCTGAATTCCGGTCTCCC
DNA 2: TGGTGGCTACGACGGGATT
B22: GGACUGG (DNA:RNA)
RNA: B5 RNA with A25G, C26G, A30G, C31G
DNA 1: CAATCTGAATTCCGGTCTCCC
DNA 2: TGGTGGCTACGACGGGATT
B23: GUCAGUU (DNA:RNA)
RNA: B1 RNA with A26U, G28A, C29G, G30U
DNA 1: CAATCTGAATTCCGGTCTCCC
DNA 2: TGGTGGCTACGACGGGATT
B24: CAUCGGU (DNA:RNA)
RNA: B1 RNA with G25C, C27U, G28C, C29G
DNA 1: CAATCTGAATTCCGGTCTCCC
DNA 2: TGGTGGCTACGACGGGATT
B25: UCUGCAG (DNA:RNA)
RNA: B5 RNA with A25U, A27U, C28G, U29C, C31G
DNA 1: CAATCTGAATTCCGGTCTCCC
DNA 2: TGGTGGCTACGACGGGATT
B26: ACCAUGC (DNA:RNA)
RNA: B5 RNA with A27C, C28A, A30G
DNA 1: CAATCTGAATTCCGGTCTCCC
DNA 2: TGGTGGCTACGACGGGATT
B27: UCUUGAC (DNA:RNA)
RNA: B5 RNA with A25U, A27U, C28U, U29G
DNA 1: CAATCTGAATTCCGGTCTCCC
DNA 2: TGGTGGCTACGACGGGATT
B28: GCGGAGA (DNA:RNA)
RNA: B1 RNA with A26C, C27G, C29A, U31A
DNA 1: CAATCTGAATTCCGGTCTCCC
DNA 2: TGGTGGCTACGACGGGATT
B29: CAUAGGG (DNA:RNA)
RNA: B1 RNA with G25C, C27U, G28A, C29G, U31G
DNA 1: CAATCTGAATTCCGGTCTCCC
DNA 2: TGGTGGCTACGACGGGATT
B30: UAUUCGC (DNA:RNA)
RNA: B1 RNA with G25U, C27U, G28U, U31C
DNA 1: CAATCTGAATTCCGGTCTCCC
DNA 2: TGGTGGCTACGACGGGATT
B31: UUCUAUA (DNA:RNA)
RNA: B1 RNA with G25U, A26U, G28U, C29A, G30U, U31A
DNA 1: CAATCTGAATTCCGGTCTCCC
DNA 2: TGGTGGCTACGACGGGATT

These binders were tested against T1, RBFOX1 RRM (Homo sapiens, UniProt Q9NWB1 109-208) (assay: EMSA; HiTS-Eq, 1 nM pool, 10 min; buffer printed only for the single-RNA assays: 10 mM Tris pH 7.5, 150 mM NaCl, 3.4 mM EDTA, 0.001% NP-40, 30 C). Details: tags: His6 N-terminal (pET28a); label: 5' 32P.
T1 sequence: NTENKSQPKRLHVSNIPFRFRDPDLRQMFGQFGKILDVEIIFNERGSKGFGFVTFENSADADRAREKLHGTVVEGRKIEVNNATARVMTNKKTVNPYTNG
Method in brief: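 Relative association constants, normalised to the cognate motif, were derived by comparing read counts of each RNA species with those of the control reaction. The RNA sequenced was the free fraction, separated by 8% native PAGE after a 10 min equilibration in 50 µL of 1 nM 5′-radiolabelled RNA (7 randomized nucleotides) with increasing concentrations of purified wild-type or mutant RbFox RRM.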

Row | Binder | binding signal
1 | B1 | 0.0242 KA relative to UGCAUGU
2 | B2 | 0.00265 KA relative to UGCAUGU
3 | B3 | 0.00314 KA relative to UGCAUGU
4 | B4 | 0.00922 KA relative to UGCAUGU
5 | B5 | 0.000282 KA relative to UGCAUGU
6 | B6 | 0.00751 KA relative to UGCAUGU
7 | B7 | 0.0202 KA relative to UGCAUGU
8 | B8 | 0.0273 KA relative to UGCAUGU
9 | B9 | 0.0188 KA relative to UGCAUGU
10 | B10 | 0.00377 KA relative to UGCAUGU
11 | B11 | 0.0474 KA relative to UGCAUGU
12 | B12 | 0.0128 KA relative to UGCAUGU
13 | B13 | 0.0207 KA relative to UGCAUGU
14 | B14 | 0.00896 KA relative to UGCAUGU
15 | B15 | 0.00861 KA relative to UGCAUGU
16 | B16 | 0.00901 KA relative to UGCAUGU

Row | Binder | binding signal
17 | B17 | 0.0159 KA relative to UGCAUGU
18 | B18 | 0.0226 KA relative to UGCAUGU
19 | B19 | 0.0198 KA relative to UGCAUGU
20 | B20 | 0.00905 KA relative to UGCAUGU
21 | B21 | 0.0104 KA relative to UGCAUGU
22 | B22 | 0.0274 KA relative to UGCAUGU
23 | B23 | 0.00927 KA relative to UGCAUGU
24 | B24 | 0.0084 KA relative to UGCAUGU
25 | B25 | 0.0203 KA relative to UGCAUGU
26 | B26 | 0.00513 KA relative to UGCAUGU
27 | B27 | 0.015 KA relative to UGCAUGU
28 | B28 | 0.0115 KA relative to UGCAUGU
29 | B29 | 0.00214 KA relative to UGCAUGU
30 | B30 | 0.0167 KA relative to UGCAUGU
31 | B31 | 0.00123 KA relative to UGCAUGU
